7 molecules from patent US20260139032A1 (35PHARMA, published 2026) can be followed below.

The labels stand for the following.
T1: activin B (UniProt P09529 293-407)
T1 sequence (looked up): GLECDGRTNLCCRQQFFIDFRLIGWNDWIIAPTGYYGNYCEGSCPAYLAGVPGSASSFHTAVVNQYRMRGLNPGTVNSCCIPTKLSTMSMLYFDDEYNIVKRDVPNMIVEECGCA

T2: GDF-8 (UniProt O14793 267-375)
T2 sequence (looked up): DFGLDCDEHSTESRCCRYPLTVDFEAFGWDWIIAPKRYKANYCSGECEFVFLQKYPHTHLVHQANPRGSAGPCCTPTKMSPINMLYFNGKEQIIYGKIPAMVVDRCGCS

T3: GDF-11 (UniProt O95390 299-407)
T3 sequence (looked up): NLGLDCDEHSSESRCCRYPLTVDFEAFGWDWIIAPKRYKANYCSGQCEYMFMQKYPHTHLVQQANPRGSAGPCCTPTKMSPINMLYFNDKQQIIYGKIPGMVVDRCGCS

T4: recombinant human activin A (human, UniProt P08476 311-426)
T4 sequence (looked up): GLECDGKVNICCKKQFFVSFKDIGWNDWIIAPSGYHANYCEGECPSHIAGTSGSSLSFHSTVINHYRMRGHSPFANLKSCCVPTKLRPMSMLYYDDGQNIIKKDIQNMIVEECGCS

T5: BMP-9 (UniProt Q9UK05 320-429)
T5 sequence (looked up): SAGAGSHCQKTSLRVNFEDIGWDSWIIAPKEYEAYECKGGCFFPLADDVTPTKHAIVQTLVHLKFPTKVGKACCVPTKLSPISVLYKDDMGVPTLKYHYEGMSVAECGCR

T6: BMP-10 (UniProt O95393 317-424)
T6 sequence (looked up): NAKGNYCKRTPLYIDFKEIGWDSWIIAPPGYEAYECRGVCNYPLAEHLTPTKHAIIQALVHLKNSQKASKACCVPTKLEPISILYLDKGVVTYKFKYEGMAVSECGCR

B1: P1193 (hActRIIB L33Y F58E, 10 aa linker, IgG1-DL Fc) (Fc fusion)
chain: ETRECIYYNANWELERTNQSGLERCEGEQDKRYHCYASWRNSSGTIELVKKGCWLDDENCYDRQECVATEENPQVYFCCCEGNFCNERFTHLPEAGGPEVTYEPPPTGGGGSGGG[human IgG1 Fc and a few adjoining residues omitted]
B2: wild type human ActRIIB-ECD-Fc (P75) (Fc fusion)
chain: ETRECIYYNANWELERTNQSGLERCEGEQDKRLHCYASWRNSSGTIELVKKGCWLDDFNCYDRQECVATEENPQVYFCCCEGNFCNERFTHLPEAGGPEVTYEPPPTG[human IgG1 Fc and a few adjoining residues omitted]
B3: P1198 (hActRIIB L33Q F58E, 3 aa GGG linker, IgG1-DL Fc) (Fc fusion)
chain: ETRECIYYNANWELERTNQSGLERCEGEQDKRQHCYASWRNSSGTIELVKKGCWLDDENCYDRQECVATEENPQVYFCCCEGNFCNERFTHLPEAGGPEVTYEPPPTG[human IgG1 Fc and a few adjoining residues omitted]
B4: P1194 (hActRIIB L33Y F58E, 14 aa linker, IgG1-DL Fc) (Fc fusion)
chain: ETRECIYYNANWELERTNQSGLERCEGEQDKRYHCYASWRNSSGTIELVKKGCWLDDENCYDRQECVATEENPQVYFCCCEGNFCNERFTHLPEAGGPEVTYEPPPTGGGGSGGGGSGG[human IgG1 Fc and a few adjoining residues omitted]
B5: P1191 (hActRIIB L33Y F58Q, 14 aa linker, IgG1-DL Fc) (Fc fusion)
chain: ETRECIYYNANWELERTNQSGLERCEGEQDKRYHCYASWRNSSGTIELVKKGCWLDDQNCYDRQECVATEENPQVYFCCCEGNFCNERFTHLPEAGGPEVTYEPPPTGGGGSGGGGSGG[human IgG1 Fc and a few adjoining residues omitted]
B6: P1197 (hActRIIB L33Q F58Q, 14 aa linker, IgG1-DL Fc) (Fc fusion)
chain: ETRECIYYNANWELERTNQSGLERCEGEQDKRQHCYASWRNSSGTIELVKKGCWLDDQNCYDRQECVATEENPQVYFCCCEGNFCNERFTHLPEAGGPEVTYEPPPTGGGGSGGGGSGG[human IgG1 Fc and a few adjoining residues omitted]
B7: P1200 (hActRIIB L33Q F58E, 14 aa linker, IgG1-DL Fc) (Fc fusion)
chain: ETRECIYYNANWELERTNQSGLERCEGEQDKRQHCYASWRNSSGTIELVKKGCWLDDENCYDRQECVATEENPQVYFCCCEGNFCNERFTHLPEAGGPEVTYEPPPTGGGGSGGGGSGG[human IgG1 Fc and a few adjoining residues omitted]

For the first experiment, the target named is T1, activin B. Kind of experiment: cell-based or functional assay.
As to B1, the “Activin B IC50 (nM), TGFβ-reporter HEK293 cell-based assay” value came out at 352 nM.
Still for that read-out and setting: in the case of B2 it was 1.4 nM; in that of B3, 106 nM.
The same measure, in the same setting: in the case of B4 it was 25 nM; in that of B5, 4.3 nM; in that of B6, 1.2 nM.
The same measure, in the same setting: in the case of B7 it was 16 nM.

For the next experiment, the target named is T2, GDF-8. The experiment can be described thus: cell-based or functional assay.
With B1, the “GDF-8 IC50 (nM), TGFβ-reporter HEK293 cell-based assay” value turned out to be 0.5 nM.
The same measure, in the same setting: in the case of B2 it was 0.67 nM; in that of B3, 0.37 nM; in that of B4, 0.39 nM.
The same measure, in the same setting: in the case of B5 it was 0.64 nM; in that of B6, 0.39 nM; in that of B7, 0.26 nM.

The next experiment addresses T3, GDF-11. The experiment can be described thus: cell-based or functional assay.
On to B1, for which the “GDF-11 IC50 (nM), TGFβ-reporter HEK293 cell-based assay” value was 0.38 nM.
The same measure, in the same setting: in the case of B2 it was 0.75 nM; in that of B3, 0.33 nM; in that of B4, 0.37 nM.
On the same count and under the same terms, in the case of B5 it was 0.52 nM.
On the same count and under the same terms, in the case of B6 it was 0.38 nM.
Consider B7, for which the “GDF-11 IC50 (nM), TGFβ-reporter HEK293 cell-based assay” value stood at 0.33 nM.

Another experiment concerns the target T4, recombinant human activin A. The experiment can be described thus: cell-based or functional assay.
With B1, the “Activin A IC50 (nM), TGFβ-reporter HEK293 cell-based assay” value (shortened to “Activin A IC50 (nM)”) stood at 0.65 nM.
Same read-out and setting: in the case of B2 it was 2.3 nM.
As to B3, the “Activin A IC50 (nM)” value turned out to be 1.1 nM.
In the case of B4, the “Activin A IC50 (nM)” value stood at 0.42 nM.
The same measure, in the same setting: in the case of B5 it was 0.74 nM.
Consider B6, for which the “Activin A IC50 (nM)” value amounted to 0.49 nM.
The same measure, in the same setting: in the case of B7 it was 0.41 nM.

A further experiment deals with T5, BMP-9. The experiment can be described thus: cell-based or functional assay.
In the case of B2, the “BMP-9 IC50 (nM), BMP-reporter HepG2 cell-based assay” value (shortened to “BMP-9 IC50 (nM)”) came out at 3 nM.
Turning to B5, the “BMP-9 IC50 (nM)” value worked out at 627 nM.
Consider B6, for which the “BMP-9 IC50 (nM)” value came to 424 nM.
With B7, the “BMP-9 IC50 (nM)” value is over 1000 nM.

Another experiment concerns the target T6, BMP-10. Kind of experiment: cell-based or functional assay.
As for B1, the “BMP-10 IC50 (nM), BMP-reporter HepG2 cell-based assay” value was 9.4 nM.
The same measure, in the same setting: in the case of B2 it was 2 nM.
Same read-out and setting: in the case of B3 it was 7.7 nM; in that of B4, 3.6 nM; in that of B5, 1.5 nM.
Still for that read-out and setting: in the case of B6 it was 1.2 nM.
In the case of B7, the “BMP-10 IC50 (nM), BMP-reporter HepG2 cell-based assay” value stood at 2 nM.

The next experiment addresses T1, activin B. The experiment can be described thus: cell-based or functional assay. This is another data set of the same source.
As to B1, the “fold reduction of potency on activin B relative to P75, TGFβ-reporter HEK293 assay” value is over 50 fold.
Still for that read-out and setting: in the case of B3 it was over 50 fold.
For B4, the “fold reduction of potency on activin B relative to P75, TGFβ-reporter HEK293 assay” value was under 20 fold.
As for B5, the “fold reduction of potency on activin B relative to P75, TGFβ-reporter HEK293 assay” value is under 20 fold.
Same read-out and setting: in the case of B7 it was under 20 fold.

The next experiment concerns the target T5, BMP-9. The experiment can be described thus: cell-based or functional assay. This is another data set of the same source.
As to B4, the “fold decrease of inhibition potency on BMP-9, BMP-reporter HepG2 assay” value is over 100 fold.
Same read-out and setting: in the case of B5 it was over 100 fold; in that of B6, over 100 fold; in that of B7, over 100 fold.
